The source of these data is the antibiotic and cytotoxicity screens of Wong et al. (2023).

Molecules are shown by their SMILES. The list shows a part of the results.

The experiment concerns S. aureus RN4220. Briefly: growth inhibition call (relative growth <= 0.2). The settings on record: 50 µM.
In the case of `Cc1noc(C)c1S(=O)(=O)Nc1ccc2c(c1)C(=O)N([C@@H](C)CO)C[C@@H](C)[C@H](CN(C)CC1CCCCC1)OCCCC[C@@H](C)O2`, the growth inhibition call was “inactive”.
As for `COc1ccc(CN(C)C[C@@H]2OCCCC[C@H](C)Oc3ccc(NC(=O)NC4CCCCC4)cc3C(=O)N([C@H](C)CO)C[C@@H]2C)cc1`, the entry is “inactive”.
As for `C[C@@H]1CCCCO[C@H](CN(C)Cc2ccc(C(F)(F)F)cc2)[C@@H](C)CN([C@H](C)CO)C(=O)c2cc(NC(=O)NC3CCCCC3)ccc2O1`, the entry is “inactive”; as for `C[C@H]1CCCCO[C@@H](CN(C)Cc2ccc(C(=O)O)cc2)[C@@H](C)CN([C@@H](C)CO)C(=O)c2cc(NC(=O)Nc3ccc4c(c3)OCO4)ccc2O1`, “inactive”.
As for `CC(C)NC[C@H]1CCC(=O)N1`, the entry is “inactive”; as for `C[C@H]1ON(c2ccc(C(=O)OC(C)(C)C)cc2)[C@@H](c2ccc(O)cc2)[C@@H]1C(=O)N1C(=O)OC[C@@H]1c1ccccc1`, “inactive”; as for `C[C@@H]1CN([C@H](C)CO)S(=O)(=O)c2ccc(-c3cncnc3)cc2O[C@H]1CN(C)C(=O)c1cccc(F)c1`, “inactive”.
With `COC(=O)CCCCCCNC(=O)c1ccc(NCc2cn(Cc3ccc(C(=O)c4ccc(Cn5cc(CNc6ccc(C(=O)NCCCCCCC(=O)OC)cc6)nn5)cc4)cc3)nn2)cc1`, the growth inhibition call was “inactive”.
As for `C[C@H]1CN([C@@H](C)CO)C(=O)Cc2cc(NC(=O)c3ccncc3)ccc2O[C@@H]1CN(C)Cc1ccc(Oc2ccccc2)cc1`, the entry is “inactive”; as for `C[C@@H]1CN([C@H](C)CO)C(=O)Cc2cc(NS(C)(=O)=O)ccc2O[C@H]1CN(C)S(=O)(=O)c1ccccc1`, “inactive”.
Regarding `C[C@H]1CN([C@@H](C)CO)C(=O)CCCn2nncc2CO[C@H]1CN(C)C(=O)Nc1cccc(Oc2ccccn2)c1`, the growth inhibition call is “inactive”.
Under `C=CCC[C@H](Cc1ccc(F)cc1)C(=O)OC[C@H]1CCCN1C(=O)[C@@H](CC=C)CC(=O)N(CCO)Cc1ccccc1` stands “inactive”.
As for `CCCc1c(SCCCOc2ccc(C(C)=O)c(OCCCC(=O)O)c2CCC)ccc(C(C)=O)c1O`, the entry is “active”.
Under `CCCCCCCCCCCCCCCCCCOC[C@H](COP(=O)(O)O[C@H]1[C@@H](O)[C@@H](O)[C@@H](O)C[C@@H]1OC)OC` stands “inactive”; under `O=C(C[C@@H]1CC[C@@H]2[C@H](COC[C@H](O)CN2S(=O)(=O)c2ccc(Cl)cc2)O1)N1CCc2ccccc2C1`, “inactive”; under `O=C(O)Cc1cccc(OCCCN(Cc2cccc(C(F)(F)F)c2Cl)CC(c2ccccc2)c2ccccc2)c1`, “inactive”.
On to `O=C(Cc1ccccn1)NCC[C@@H]1CC[C@H](NC(=O)CN2CCOCC2)[C@@H](CO)O1`, for which the growth inhibition call is “inactive”.
With `C[C@@H]1CN([C@@H](C)CO)C(=O)c2cc(NC(=O)Nc3ccccc3)ccc2O[C@@H](C)CCCCO[C@H]1CN(C)S(=O)(=O)c1cccc(F)c1`, the growth inhibition call was “inactive”.
Take `COc1ccc(NC(=O)N(C)C[C@H]2OCc3cnnn3CCCC(=O)N([C@@H](C)CO)C[C@@H]2C)c(OC)c1`: the growth inhibition call is “inactive”.
Under `CSC1=N[C@@]2(C)CCCC[C@@H]2c2c1ccc1ccccc21` stands “inactive”; under `Cc1nn(-c2nc3c(c(=O)n(CC(N)=O)c(=O)n3C)n2C)c(C)c1C`, “inactive”.
Regarding `C[C@@H]1CN([C@@H](C)CO)S(=O)(=O)c2ccc(C#CC(C)(C)O)cc2O[C@H]1CN(C)C(=O)CN(C)C`, the growth inhibition call is “inactive”.
Under `C[C@@H]1CCCCO[C@@H](CN(C)C(=O)CCC(F)(F)F)[C@H](C)CN([C@@H](C)CO)C(=O)c2cc(NC(=O)c3ccccc3)ccc2O1` stands “inactive”; under `C=CCNC(=O)[C@H]1[C@@H]2C(=O)O[C@@H](c3ccccc3)[C@@H](c3ccccc3)N2[C@@H](c2ccc(O)cc2)[C@]12C(=O)N(C(=O)OCCOC)c1ccc(C#Cc3ccc(OC)cc3)cc12`, “inactive”; under `CCC(C)CCCCC(=O)NC(CCN)C(=O)NC(C(=O)NC(CCN)C(=O)NC1CCNC(=O)C(C(C)O)NC(=O)C(CCN)NC(=O)C(CCN)NC(=O)C(CC(C)C)NC(=O)C(Cc2ccccc2)NC(=O)C(CCN)NC1=O)C(C)O.O=S(=O)(O)O` (stereo not given), “active”.
As for `C[C@@H]1CN([C@H](C)CO)C(=O)c2cc(C#Cc3ccccc3)cnc2O[C@@H]1CN(C)C(=O)CCN1CCCCC1`, the entry is “inactive”; as for `CN(C)Cc1ccc(O)c(CN(C)C)n1`, “inactive”.
As for `CC1=C(C(=O)O)N2C(=O)[C@@H](NC(=O)[C@@H](N)c3ccccc3)[C@H]2SC1`, the entry is “inactive”.
On to `CO[C@@H]1CN(C)C(=O)c2ccc(NS(C)(=O)=O)cc2OC[C@@H](C)N(S(C)(=O)=O)C[C@H]1C`, for which the growth inhibition call is “inactive”.
For `C[C@@H]1CN([C@H](C)CO)C(=O)c2cc(C#CC3(O)CCCC3)cnc2O[C@@H]1CN(C)C(=O)CN(C)C`, the growth inhibition call was “inactive”.
As for `COc1ccc(S(=O)(=O)N(C)C[C@H]2OCCCC[C@H](C)Oc3ccc(NS(=O)(=O)c4ccc(Cl)cc4)cc3C(=O)N([C@H](C)CO)C[C@@H]2C)cc1`, the entry is “inactive”; as for `CC(C)NC(=O)N(C)C[C@@H]1Oc2ccc(NC(=O)CCN3CCOCC3)cc2C(=O)N([C@@H](C)CO)C[C@@H]1C`, “inactive”; as for `C[C@H](CO)N1C[C@H](C)[C@@H](CN(C)S(=O)(=O)c2cccs2)OCCCC[C@H](C)Oc2ccc(NC(=O)Nc3ccc(C(F)(F)F)cc3)cc2C1=O`, “inactive”.
For `COc1ccc(NC(=O)Nc2ccc3c(c2)C(=O)N([C@@H](C)CO)C[C@H](C)[C@H](CN(C)S(=O)(=O)c2cccs2)OCCCC[C@@H](C)O3)cc1`, the growth inhibition call is “inactive”.
For the molecule `C[C@@H](NC(=O)C[C@H]1CC[C@@H](NC(=O)CN2CCOCC2)[C@@H](CO)O1)c1ccccc1`, the growth inhibition call was “inactive”.
`CCCN(C)C[C@@H]1OCCCC[C@H](C)Oc2ccc(NC(=O)c3ccccc3)cc2C(=O)N([C@H](C)CO)C[C@@H]1C`: the growth inhibition call is “inactive”.
As for `COc1ccc(S(=O)(=O)N(C)C[C@@H]2Oc3ccc(NC(=O)CCN4CCOCC4)cc3C(=O)N([C@H](C)CO)C[C@@H]2C)cc1`, the entry is “inactive”.
For the molecule `COc1ccccc1C#Cc1ccc2c(c1)O[C@@H](CN(C)Cc1ccncc1)[C@H](C)CN([C@H](C)CO)S2(=O)=O`, the growth inhibition call is “inactive”.
Under `C[C@@H]1CCCCO[C@H](CN(C)Cc2ccc(C(F)(F)F)cc2)[C@H](C)CN([C@@H](C)CO)C(=O)c2cc(NC(=O)CCCN(C)C)ccc2O1` stands “inactive”; under `C[C@H](CO)N1C[C@H](C)[C@H](CN(C)C(=O)Cc2ccccc2)OCCCC[C@H](C)Oc2ccc(NC(=O)Nc3cccc4ccccc34)cc2C1=O`, “inactive”.
